In publication PMC6633205, “Cus2 enforces the first ATP-dependent step of splicing by binding to yeast SF3b1 through a UHM–ULM interaction” (RNA, 2019):
Residue numbers refer to the chain shown, from its start. Names and notes keep the numbering of the source. These are yes or no findings as the source states them, for the method shown. Some binding calls cover weakened binding; strength is not graded here. For some assays here: Tags and fused reporters may be left off the sequences shown.

T1: Cus2 UHM (146-285) fused to the GAL4 DNA-binding domain (S. cerevisiae) (UniProt P53830)
T1 sequence: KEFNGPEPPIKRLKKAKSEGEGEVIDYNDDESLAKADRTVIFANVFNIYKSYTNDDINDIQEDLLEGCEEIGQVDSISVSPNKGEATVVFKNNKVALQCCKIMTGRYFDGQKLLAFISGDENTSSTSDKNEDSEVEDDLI

T2: Cus2, full length, fused to the GAL4 DNA-binding domain (S. cerevisiae) (UniProt P53830)
T2 sequence: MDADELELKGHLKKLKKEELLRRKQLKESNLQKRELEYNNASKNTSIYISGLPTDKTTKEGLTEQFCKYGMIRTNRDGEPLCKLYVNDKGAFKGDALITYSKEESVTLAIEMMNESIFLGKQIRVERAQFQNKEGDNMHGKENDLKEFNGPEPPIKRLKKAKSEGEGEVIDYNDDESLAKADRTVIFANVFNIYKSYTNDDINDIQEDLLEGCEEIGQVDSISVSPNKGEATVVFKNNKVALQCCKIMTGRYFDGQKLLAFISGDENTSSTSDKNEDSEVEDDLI

T3: Tat-SF1 (1-383) fused to the GAL4 DNA-binding domain (human) (UniProt O43719)
T3 sequence: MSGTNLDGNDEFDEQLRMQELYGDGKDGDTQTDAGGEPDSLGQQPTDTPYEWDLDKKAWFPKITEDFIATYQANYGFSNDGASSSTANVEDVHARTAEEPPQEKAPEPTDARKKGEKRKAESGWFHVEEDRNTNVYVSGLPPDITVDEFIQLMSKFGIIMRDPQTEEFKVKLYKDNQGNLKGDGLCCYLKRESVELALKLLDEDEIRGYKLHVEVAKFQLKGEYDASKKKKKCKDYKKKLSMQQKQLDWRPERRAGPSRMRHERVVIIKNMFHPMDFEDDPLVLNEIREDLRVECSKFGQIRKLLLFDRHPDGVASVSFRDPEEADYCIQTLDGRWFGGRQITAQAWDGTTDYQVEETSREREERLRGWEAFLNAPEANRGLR

T4: Tat-SF1 UHM (residues 260-353) (human) (UniProt O43719)
T4 sequence: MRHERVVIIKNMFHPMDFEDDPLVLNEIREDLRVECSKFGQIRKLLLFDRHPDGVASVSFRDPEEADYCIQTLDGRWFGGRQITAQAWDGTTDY

B1: Hsh155, full length, wild type, fused to the GAL4 activation domain (protein, UniProt P49955 1-971)
chain: MSHPIQFVNANNSDKSHQLGGQYSIPQDLRENLQKEAARIGENEKDVLQEKMETRTVQNREDSYHKRRFDMKFEPDSDTQTVTSSENTQDAVVPRKRKSRWDVKGYEPPDESSTAVKENSDSALVNVEGIHDLMFFKPSDHKYFADVISKKPIDELNKDEKKERTLSMLLLKIKNGNTASRRTSMRILTDKAVTFGPEMIFNRLLPILLDRSLEDQERHLMIKTIDRVLYQLGDLTKPYVHKILVVAAPLLIDEDPMVRSTGQEIITNLSTVAGLKTILTVMRPDIENEDEYVRNVTSRAAAVVAKALGVNQLLPFINAACHSRKSWKARHTGIKIVQQIGILLGIGVLNHLTGLMSCIKDCLMDDHVPVRIVTAHTLSTLAENSYPYGIEVFNVVLEPLWKGIRSHRGKVLSSFLKAVGSMIPLMDPEYAGYYTTEAMRIIRREFDSPDDEMKKTILLVLQKCSAVESITPKFLREEIAPEFFQKFWVRRVALDRPLNKVVTYTTVTLAKKLGCSYTIDKLLTPLRDEAEPFRTMAVHAVTRTVNLLGTADLDERLETRLIDALLIAFQEQTNSDSIIFKGFGAVTVSLDIRMKPFLAPIVSTILNHLKHKTPLVRQHAADLCAILIPVIKNCHEFEMLNKLNIILYESLGEVYPEVLGSIINAMYCITSVMDLDKLQPPINQILPTLTPILRNKHRKVEVNTIKFVGLIGKLAPTYAPPKEWMRICFELLELLKSTNKEIRRSANATFGFIAEAIGPHDVLVALLNNLKVQERQLRVCTAVAIGIVAKVCGPYNVLPVIMNEYTTPETNVQNGVLKAMSFMFEYIGNMSKDYIYFITPLLEDALTDRDLVHRQTASNVITHLALNCSGTGHEDAFIHLMNLLIPNIFETSPHAIMRILEGLEALSQALGPGLFMNYIWAGLFHPAKNVRKAFWRVYNNMYVMYQDAMVPFYPVTPDNNEEYIEELDLVL
B2: Hsh155 ULM (residues 98-112) of the crystal structure (peptide, UniProt P49955 98-112)
peptide: KSRWDVKGYEPPDES
B3: Hsh155 R100D, W101A fused to the GAL4 activation domain (natural protein, S. cerevisiae, UniProt P49955 1-971, looked up)
chain: B1 chain with R100D, W101A

Key:
[1] = biological target: T1, Cus2 UHM (146-285) fused to the GAL4 DNA-binding domain (S. cerevisiae); experiment: two-hybrid; Cus2 proteins fused to the GAL4 DNA-binding domain (pAS2) against Hsh155 fused to the GAL4 activation domain (pACT) in yeast strain y190; GAL/UAS-HIS3 reporter, growth on SCD -Leu -Trp -His with 25 mM 3-AT
[2] = biological target: T2, Cus2, full length, fused to the GAL4 DNA-binding domain (S. cerevisiae); experiment: as above
[3] = biological target: T3, Tat-SF1 (1-383) fused to the GAL4 DNA-binding domain (human); experiment: two-hybrid; Tat-SF1 (1-383) fused to the GAL4 DNA-binding domain against Hsh155 fused to the GAL4 activation domain, in a strain with the CUS2 open reading frame deleted; growth on SCD -Leu -Trp -His with 25 mM 3-AT
[4] = biological target: T4, Tat-SF1 UHM (residues 260-353) (human); experiment: crystal structure; Tat-SF1 UHM–Hsh155 ULM complex in a 1:1.2 molar ratio, 18 mg/mL, vapor diffusion at 277 K; 2.0 Å; both purified

Row | Binder | binding [1] | binding [2] | binding [3] | binding [4]
1 | B1 | binds | binds | binds | –
2 | B2 | – | – | – | binds
3 | B3 | – | no binding | – | –
